# From PubChem BioAssay AID1671193 (National Center for Advancing Translational Sciences (NCATS), 2021)
# Among all 150,000 compounds or so, about 180 (0.12%) were called active. Inconclusive results, whose numbers are uncertain, are shown with a selection of clear calls. Calls come from the whole dose curve; as a rule, active = well fitted cell-killing curve with a large enough effect; inconclusive = small, poorly fitted or top-dose-only effect, or effect the other way; inactive = flat fitted curve, though single readings scatter. Potencies of inconclusive entries are doubtful fits and often do not repeat.
# Assay: GF-AFC viability counterscreen for inhibitors of alpha-synuclein gene (SNCA) expression; note: nearly all actives have a fitted effect of over 30% in size;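 for activity change, negative = cytotoxicity: 0% = DMSO-treated cells and -100% = medium-only wells without cells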
# Details: HEK-293-SNCA-luc viability, GF-AFC fluorescence, 24 h; activity change, negative = cytotoxicity: at 57.1 µM (top of the series) unless noted
# In short: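 Cytotoxicity counterscreen: after 24 h compound treatment of genome-edited SNCA-luciferase HEK-293 cells, live-cell protease substrate GF-AFC read by fluorescence after 30 min; activity scaled between DMSO (0%) and medium-only (-100%), curves Hill-fitted.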
# Potency is the fitted concentration of half-maximal effect; tags give direction and shape of the fitted curve.
Compound,Potency,"activity change, negative = cytotoxicity"
Cc1ccsc1C(=O)NC1CCCN(c2cc(-c3ccc(F)cc3)[nH]n2)C1 (configuration not stated),"inconclusive: 17.8 µM [cytotoxic, partial curve]",–
CCOc1nc2c(N)ncnc2n1CC,"inconclusive: 0.0053 µM [rising, full curve, poor fit]",–
CC/C=C\CC1C(=O)C=CC1(CCCCC1CCC(=O)O1)OC(C)=O (configuration not stated),"inconclusive: 0.585 µM [cytotoxic, full curve, poor fit]",–
Cc1ccc(CN2CCn3c(nnc3[C@@H]3C[C@@H](O)CN3Cc3cccnc3)C2)s1,–,inactive: -0.34% [at 12.5 µM]
Cc1cc(N2CCN(C)CC2)nc2ccc(NC(=O)Nc3cccc(Cl)c3)cc12,"inconclusive: 25.1 µM [cytotoxic, partial curve, poor fit]",–
COc1ccccc1Nc1ccnc(N2CCN(C(=O)C3CCCC3)CC2)n1,"inconclusive: 3.55 µM [cytotoxic, single point]",–
Cc1cccc2c1nc1n2[C@@H](CNS(=O)(=O)Cc2ccccc2)COC1,"inconclusive: 25.1 µM [cytotoxic, partial curve, poor fit]",–
COc1cc(OC)c(N(C)C(=O)c2cn(C3CCCC3)c(=O)c3c2c2ccccc2n3C)cc1Cl,"inconclusive: 28.2 µM [cytotoxic, single point]",–
O=C1OCC2(CCN(Cc3ccccc3O)C2)N1Cc1ccccc1 (configuration not stated),–,inactive: 10.9% [at 87.6 µM]
CN(C)c1ncc2c(n1)C(C)(C(=O)Nc1ccccc1F)CCC2 (configuration not stated),–,inactive: 3.29% [at 87.6 µM]
Cc1nn(-c2ccc(C(F)(F)F)cc2)c(C)c1[C@@H]1C=C[C@@H](NCc2ccc(N(C)C)cc2)C1,"inconclusive: 39.8 µM [cytotoxic, single point]",–
CC(=O)c1cc(-c2ccc(F)cc2)n(CC(=O)NC2CCC(C)CC2)c1C (configuration not stated),"inconclusive: 4.47 µM [cytotoxic, full curve]",–
COc1ccc(NC(=O)c2c(C)oc3ccc(O)c(CN4CCN(Cc5ccccc5)CC4)c23)cc1Cl,"inconclusive: 39.8 µM [cytotoxic, single point]",–
COc1ccc(-n2c(=O)c(-c3cccs3)nc3cnc(N4CCNCC4)nc32)cc1,"inconclusive: 25.1 µM [rising, partial curve]",–
O=C(c1ccccc1)N1Cc2ccccc2CC2(CCN(Cc3ccccn3)C2)C1 (configuration not stated),"inconclusive: 17.8 µM [cytotoxic, partial curve, poor fit]",–
CCOC(=O)CN(Cc1ccccc1)C(C(=O)NC1CCCCC1)c1ccc(OC)cc1 (configuration not stated),"inconclusive: 28.2 µM [cytotoxic, single point]",–
O=C(NCC1Cn2cccc2CN1Cc1ccccc1)c1ccsc1 (configuration not stated),–,inactive: -4.94%
O=C1CCCN1CCN1CCOc2c(O)cc(-c3csc4ccccc34)cc2C1,–,inactive: -23.9%
Cc1ccc(-c2nnc(Nc3cccc(O)c3)c3ccccc23)cc1S(=O)(=O)NCC1CCCO1 (configuration not stated),"inconclusive: 20 µM [cytotoxic, partial curve]",–
NS(=O)(=O)c1ccc(CCNc2ncnc3c2cnn3-c2cccc(Cl)c2)cc1,"inconclusive: 39.8 µM [cytotoxic, single point]",–
COc1ccc2[nH]c(C[C@@H]3C[C@@H](C(C)C)[C@H](CNC(=O)c4cccnc4)C=C3C)nc2n1,"inconclusive: 31.6 µM [cytotoxic, partial curve, poor fit]",–
O=C1NC2(CCN(C(=O)Cc3ccccc3)C2)Oc2ccccc21 (configuration not stated),"inconclusive: 56.2 µM [cytotoxic, single point]",–
COCc1cc(NCC(O)COc2ccc(Cl)c(C)c2)ncn1 (configuration not stated),–,inactive: 12.9%

Compound,Potency,"activity change, negative = cytotoxicity"
Cc1ccc(Cn2cc(C(=O)c3ccc4c(c3)OCO4)c(=O)c3cc(C)ccc32)cc1,"inconclusive: 17.8 µM [cytotoxic, partial curve, poor fit]",–
CCOC(=O)C1=C(CN2CCN(c3ccc(OC)cc3)CC2)NC(=O)NC1c1ccc(Cl)cc1 (configuration not stated),"inconclusive: 39.8 µM [cytotoxic, single point]",–
CCOCCCn1c(=N)c(C(=O)NC2CCCC2)cc2c(=O)n3cc(C)ccc3nc21,"inconclusive: 31.6 µM [rising, partial curve, poor fit]",–
O=C1NC2(CCCN([S+](=O)([O-])c3cccs3)C2)Oc2ccccc21 (configuration not stated),–,inactive: 10.1%
CNC(=O)CNC(=O)N1CCC(=O)N(C)c2ccccc2C(OC)C1 (configuration not stated),–,inactive: -3.13% [at 23.9 µM]
COc1ccccc1CNC(=O)C[C@@H]1c2nc(-c3cccnc3)sc2C[C@@H]2[C@](C)(CO)[C@H](O)CC[C@]21C,–,inactive: -0.473%
COCCNc1cc(-c2ccc3ccccc3n2)c2cc[nH]c2n1,–,inactive: -16.3%
CCN1C(=O)CCc2cc(NC(=O)c3cncc(Br)c3)ccc21,–,inactive: 4.58%
O=C(NCCC1=CCCCC1)C1CCN(C(=O)c2ncn3c2COC(c2ccc(F)cc2)C3)CC1 (configuration not stated),"inconclusive: 39.8 µM [cytotoxic, single point]",–
COc1ccc2[nH]cc(CCNc3ncnc4ccc(-c5cccc(C#N)c5)cc34)c2c1,"inconclusive: 31.6 µM [cytotoxic, partial curve, poor fit]",–
CCN(CC)C(=O)CSc1nc2ccsc2c(=O)n1Cc1ccccc1Cl,"inconclusive: 12.6 µM [cytotoxic, partial curve, poor fit]",–
CN(C)c1cccc(Nc2cc3c(cn2)NCCN(Cc2ccccc2)C3)c1,"inconclusive: 44.7 µM [cytotoxic, single point]",–
O=C(NCc1ccc2c(c1)OCO2)c1nc(-c2ccc(Cl)cc2Cl)c2ccccn12,–,inactive: 2.89%
Cc1ccc(NC(=O)Cn2c(-c3cccc(Cl)c3)nc(C)c(CCO)c2=O)cc1,"inconclusive: 35.5 µM [cytotoxic, partial curve, poor fit]",–
Cc1cc(C)cc(NC(=O)N2CCC(Oc3ncccc3C(=O)N3CCCCC3)C2)c1 (configuration not stated),"inconclusive: 12.6 µM [cytotoxic, partial curve, poor fit]",–
Cc1nnc(-c2cc(-c3cccc(F)c3)ccn2)n1CCc1ccccc1,–,inactive: 1.46% [at 87.6 µM]
COc1ccc(NC(=O)Nc2cccc(-c3ccc(N4CCOCC4)nn3)c2)cc1Cl,"inconclusive: 20 µM [cytotoxic, single point]",–
COc1cccc(Cn2c(=O)cnc3cnc(N4CCOCC4)nc32)c1,"inconclusive: 44.7 µM [cytotoxic, single point]",–
COc1ccccc1Nc1cnc2ccc(-c3ccc(F)cc3)nn12,–,inactive: -17% [at 87.6 µM]
CC(=O)N1Cc2ccccc2OC2(CCN(C(=O)c3ccnc(N)c3)CC2)C1,–,inactive: 0.648%
N#Cc1ccc(O[C@@H]2CCOC[C@H]2NC(=O)CCN2CCCC2=O)cc1,"inconclusive: 3.55 µM [cytotoxic, single point]",–
CN1CCC2(C1)CN(Cc1ccccc1)c1ccc(C(=O)Nc3ccn(C)n3)cc12 (configuration not stated),–,inactive: 0.481% [at 87.6 µM]
CN(C1CCc2nn(CC3CC3)c(=O)n2CC1)S(=O)(=O)Cc1ccccc1 (configuration not stated),"inconclusive: 5.01 µM [rising, full curve, poor fit]",–

Compound,Potency,"activity change, negative = cytotoxicity"
CC1CCN(C(=O)C(C)Sc2nc(-c3ccccc3)cc(C(F)(F)F)n2)CC1 (configuration not stated),"inconclusive: 3.55 µM [cytotoxic, full curve, poor fit]",–
O=C(C1CC1)N1CCC2(CC1)CCN(Cc1cccs1)c1ccccc1O2,–,inactive: -18.5%
CCC(CC)c1cc([C@H]2CN3CC[C@H]2C[C@@H]3CNC(=O)c2cc(OC)c(OC)c(OC)c2)nc(-c2ccncc2)n1,"inconclusive: 25.1 µM [cytotoxic, single point]",–
Cc1cc(F)ccc1NC(=O)CCSc1nc(-c2ccco2)cc(C(F)(F)F)n1,"inconclusive: 15.8 µM [rising, partial curve]",–
COc1ccc(-c2cc3ccc(O)c(CN4CCCC4)c3oc2=O)cc1OC,"inconclusive: 11.2 µM [rising, partial curve]",–
Cc1ccc(C(=O)N2CCc3cn(C)c4cccc(c34)C2)cc1,–,inactive: 8.59%
Cc1ccc(NC(=O)c2nc3sccn3c2-c2cccnc2)cc1,"inconclusive: 7.94 µM [cytotoxic, full curve, poor fit]",–
COc1cc(C)ccc1OCCSc1nc2ccc(NC(C)=O)cc2s1,"inconclusive: 5.62 µM [cytotoxic, full curve, poor fit]",–
CCn1cc(S(=O)(=O)N2CC(N(C3CCOCC3)S(C)(=O)=O)C2)cn1,–,inactive: 7.71%
Cc1c(C(=O)N(C)C)sc2c1c(=O)n(-c1ccccc1C(F)(F)F)c(=O)n2Cc1cccc(F)c1,–,inactive: -0.198%
O=C(c1nc2cccnc2n(CCc2ccccc2)c1=O)N1CCN([S+](=O)([O-])c2cccs2)CC1,–,inactive: 5.57%
COc1cc2ccccc2cc1C(=O)Nc1ccc2oc(-c3cccc(C)c3)nc2c1,–,inactive: 5.1%
O=C(c1cnc2c(c1)N(C(=O)CCc1ccccc1)CCC2)N1CCC(c2ccccc2)CC1,–,inactive: -14.2%
COC1=C(OC)C(=O)c2ccccc2C1=O,–,inactive: -12.3%
CCOc1ccc(C(=O)c2c(N)c(-c3nc(-c4ccc(OCC)cc4)cs3)c3ccccn23)cc1,–,inactive: 2.65%
O=C(COc1ccc(F)cc1)Nc1ccc(Cl)c(-c2nc3ccccc3[nH]2)c1,"inconclusive: 39.8 µM [cytotoxic, single point]",–
CCc1cccc2c(C(CC(=O)NCC(C)C)c3cccc([N+](=O)[O-])c3)c[nH]c12 (configuration not stated),–,inactive: -6.4%
Cc1cccc(C2CCCN(C(=O)c3cn(CCc4ccccc4)nn3)C2)c1 (configuration not stated),–,inactive: -6.76%
COCc1ccc2c(c1)c(OC(C)(C)C(=O)NC1CCOCC1)nn2Cc1ccccc1,–,inactive: 2.95% [at 87.6 µM]
CC(C)N1C(=O)C2(CCCC2)C1C(=O)NCC1CCCCC1 (configuration not stated),"inconclusive: 31.6 µM [cytotoxic, single point]",–
O=C(Nc1ccc(-c2cccc(F)c2)cc1)C1CCCN1Cc1cnc[nH]1 (configuration not stated),"inconclusive: 2.24 µM [cytotoxic, full curve]",–
